Data reported in PubChem BioAssay AID488969 (Vanderbilt High Throughput Screening Facility, 2010).
The full ranking holds about 110,000 compounds; the median of “z-score” is about -0.1, and the highest 2% start at about 2. Some of the results follow. Activity calls are given as the source filed them.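 How the source made its calls: active means z-score in the third read window above 3 or below -3; inactive means the rest.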

These compounds were tested against Metabotropic glutamate receptor 8 (Rattus norvegicus) (UniProt P70579) (assay: mGluR8 Gi/Go-coupled signaling modulation – cell-based, rat, thallium flux, HTS, primary screen (AID 488969)). Conditions: HEK293 rat mGluR8, GIRK (G protein-gated inwardly rectifying potassium channel) thallium flux, FluoZin2; at 10 µM; stronger effect = higher value; submaximal glutamate (EC20) added with thallium.
UniProt P70579, sequence (P70579 whole entry, looked up): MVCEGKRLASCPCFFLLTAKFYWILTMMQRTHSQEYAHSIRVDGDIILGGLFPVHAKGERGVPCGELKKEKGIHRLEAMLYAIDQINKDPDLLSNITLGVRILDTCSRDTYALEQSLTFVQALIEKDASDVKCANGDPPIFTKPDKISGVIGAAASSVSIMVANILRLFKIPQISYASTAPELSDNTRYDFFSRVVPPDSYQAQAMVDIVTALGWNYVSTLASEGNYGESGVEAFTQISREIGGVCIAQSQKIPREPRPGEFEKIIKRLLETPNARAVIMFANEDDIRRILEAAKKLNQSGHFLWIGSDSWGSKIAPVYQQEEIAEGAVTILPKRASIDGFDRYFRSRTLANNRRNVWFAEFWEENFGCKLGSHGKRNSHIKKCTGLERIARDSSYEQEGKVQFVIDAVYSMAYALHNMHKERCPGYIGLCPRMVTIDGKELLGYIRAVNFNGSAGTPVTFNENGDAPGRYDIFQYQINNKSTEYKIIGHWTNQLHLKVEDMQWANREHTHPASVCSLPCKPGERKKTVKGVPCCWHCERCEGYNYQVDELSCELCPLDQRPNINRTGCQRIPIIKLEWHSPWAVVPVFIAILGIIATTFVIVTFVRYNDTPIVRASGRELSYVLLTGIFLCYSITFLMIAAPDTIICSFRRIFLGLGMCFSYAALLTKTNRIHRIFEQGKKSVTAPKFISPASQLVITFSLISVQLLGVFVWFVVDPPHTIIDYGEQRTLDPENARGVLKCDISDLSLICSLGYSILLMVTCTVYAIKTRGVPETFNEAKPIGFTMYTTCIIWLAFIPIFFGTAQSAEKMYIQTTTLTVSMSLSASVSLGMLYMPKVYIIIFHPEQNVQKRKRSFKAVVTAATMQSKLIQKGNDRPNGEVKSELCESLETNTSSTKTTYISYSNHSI

First: CCOc1ccc(-n2c(SCc3ccc([N+](=O)[O-])cc3)nnc2-c2ccc(OC)cc2)cc1
Second: COc1ccc(C2=CC(c3ccc(C)cc3)n3nnnc3N2)cc1 (centres undefined)
The z-score of the first is higher: -0.658 for the first, -1.18 for the second.

First: CCNc1nc(NCC)nc(N(n2cnnc2)S(=O)(=O)c2ccc(C)cc2)n1
Second: CCOC(=O)C1CN(S(=O)(=O)c2ccc(C)cc2)CCN1S(=O)(=O)c1ccc(C)cc1 (centres undefined)
The z-score of the first is lower: -0.182 for the first, 0.487 for the second.

Compared with `Cc1cccc(-c2cc3nc4c(c(NCc5ccco5)n3n2)CCCC4)c1`, `CC1=C(C(N)=O)C(c2ccccc2)n2nc(-c3cccc(C)c3)nc2N1` (centres undefined) is lower in z-score: 0.515 for the first, -0.467 for the second.

Going from `COc1ccc(CN2c3cc(S(=O)(=O)N4CCOCC4)ccc3N3CCCC32)cc1` (centres undefined) to `CC1CCN(S(=O)(=O)c2ccc3[nH]c(=O)cc(C(=O)O)c3c2)CC1`, the z-score rises from -0.0468 to 0.0457.

Compared with `O=C(O)C1CCCCC1C(=O)NCc1ccccc1` (centres undefined), `CC(=O)N[C@H]1C[C@@H]1c1ccccc1` is higher in z-score: -0.716 for the first, 0.567 for the second.

First: O=C(NNS(=O)(=O)c1ccccc1[N+](=O)[O-])c1ccncc1
Second: C/C(=N\NC(=O)C(=O)Nc1cccc(Cl)c1)c1ccncc1
The z-score of the first is lower: -0.199 for the first, -0.155 for the second.

Compared with `CCOC(=O)c1cnn(-c2c(Cc3ccccc3)c(C)nc3c(-c4ccccc4)c(C)nn23)c1N`, `Cc1noc(C)c1CSc1nnc(-c2ccccc2F)n1CCc1ccccc1` is lower in z-score: -0.0157 for the first, -0.0463 for the second.

Going from `O=C1C(Cl)=C(NCC2CCCO2)C(=O)N1Cc1ccccc1` (centres undefined) to `O=C1c2[nH]nc(-c3ccccc3O)c2C(c2cccc(Cl)c2)N1CC1CCCO1` (centres undefined), the z-score falls from 0.22 to -0.455.

First: CCOCCc1nnc(NC(=O)C(CC)c2ccccc2)s1 (centres undefined)
Second: Cc1c(NC(=O)CSc2nnc(N)s2)c(=O)n(-c2ccccc2)n1C
The z-score of the first is lower: -0.74 for the first, -0.284 for the second.

Going from `CN=C1CC(C)(C)CC(=O)/C1=C(/O)CCC(=O)NC` to `CCOc1c(C(=O)CC)cc2c(C)cc(=O)oc2c1C`, the z-score rises from -0.292 to 1.63.

Going from `CCOC(=O)N1CCN(c2ncnc3c2[nH]c2ccc(OC)cc23)CC1` to `CCOc1ccc2oc(-c3ccccc3)c(C(=O)N3CCN(CCO)CC3)c2c1`, the z-score rises from -0.623 to -0.457.

Going from `O=C1CCC(=O)N1CCCCCc1nc(-c2ccccc2)no1` to `O=C(O)CCCCCN1C(=O)C(=O)/C(=C(/O)c2ccccc2)C1c1ccccc1` (centres undefined), the z-score falls from 0.0731 to -0.0105.

Going from `CCC(C)NC(=O)C(Cc1ccccc1)NS(=O)(=O)c1cccc2nsnc12` (centres undefined) to `CC(CCc1ccccc1)NC(=O)c1cccnc1` (centres undefined), the z-score falls from 0.341 to 0.207.

First: CCN(CC#CCC1(O)c2ccccc2-c2ccccc21)CCO
Second: CC(C)N(C(=O)c1ccccc1-c1ccccc1)C(C)C
The z-score of the first is higher: 0.104 for the first, -0.685 for the second.

First: O=C1CC(c2ccccc2)CC(O)=C1C=NCCN1CCN(C(=S)Nc2cccc(Cl)c2)CC1 (centres undefined)
Second: O=C(Nc1ccccc1)N1CCCN(Cc2ccccc2F)C1
The z-score of the first is lower: -1.85 for the first, 0.97 for the second.

First: COc1ccc(Br)cc1S(=O)(=O)n1ccnc1C
Second: COc1ccc(OC)c2[nH]c(=O)c(CCNS(=O)(=O)c3ccccc3)cc12
The z-score of the first is lower: 0.214 for the first, 0.221 for the second.

Going from `NC(=O)NC(c1ccccc1)c1ccccc1F` (centres undefined) to `N#CC1(c2ccccc2)CCCN1C(=O)c1ccccc1Br` (centres undefined), the z-score rises from -0.121 to -0.0974.

Going from `Cc1ccc(Cl)cc1N1CCN(C(=O)CN(C2CCCCC2)S(C)(=O)=O)CC1` to `CSc1nc2ccc(S(=O)(=O)NC3CCCCC3)cc2s1`, the z-score falls from -0.0779 to -1.02.

Going from `O=c1c2ccccc2nc2n1-c1ccccc1CCC2` to `CCOC(=O)CN1C(=O)C(O)(CC(=O)c2ccc3c(c2)CCCC3)c2ccccc21` (centres undefined), the z-score falls from -0.0901 to -0.0925.

Going from `CCOc1cc2c(cc1OCC)C(C(=O)O)C(c1ccc(OC)c(O)c1)N(C)C2=O` (centres undefined) to `CCOc1cc(CNC(C)(C)CO)cc(Br)c1OCc1ccc(Cl)cc1Cl`, the z-score falls from 0.478 to 0.463.

Compared with `CCn1c(=NC(=O)CSC(C)=O)sc2cc(F)ccc21`, `COc1ccc(C)cc1NC(=O)CN1CCN(c2ccc(F)cc2)CC1` is lower in z-score: 0.658 for the first, 0.284 for the second.

Going from `Cn1nnc2cc(NC(=O)NCc3ccc4c(c3)OCO4)ccc21` to `CC(C)NC(=O)c1ccc2c(c1)nnn2C`, the z-score falls from 0.331 to 0.0176.

Going from `O=C(CSc1nnc(-c2ccc(O)cc2)n1Cc1ccccc1)NNC(=O)c1ccc(Br)cc1` to `CCOc1ccc(NC(=O)COc2ccc(C(=O)NCCc3ccccc3)cc2)cc1`, the z-score rises from -0.325 to -0.0849.

Compared with `C=CCNC(=O)c1c(Cl)cccc1Cl`, `C=CCOc1nc2c(c(=O)n(C)c(=O)n2C)n1Cc1c(Cl)cccc1Cl` is lower in z-score: -0.161 for the first, -1.34 for the second.

Compared with `Nc1nnc(SCC(=O)NC2CCCCC2)n1-c1ccccc1`, `O=C(CSc1nnc(C2CC2)n1-c1ccccc1)NCCc1ccc(F)cc1` is lower in z-score: -0.414 for the first, -0.612 for the second.

Compared with `COc1ccc(C(=O)Nc2cccc(/C(C)=N/NC(=O)c3ccc([N+](=O)[O-])cc3)c2)cc1OC`, `CCOc1cccc(C(=O)NC(=S)Nc2cccc(NC(=O)c3ccccc3Cl)c2)c1` is lower in z-score: 0.147 for the first, -0.0995 for the second.

Going from `COc1ccc(-n2ccnc2SCC(=O)Nc2ccccc2)cc1` to `COc1ccc(C(=O)CSc2nc3cccnc3n2C)cc1`, the z-score rises from -0.308 to -0.0303.

Going from `Cc1ccc(CN2C(=O)CCC2C(=O)NCc2cccnc2)cc1` (centres undefined) to `O=C(COC(=O)Cn1cnc2ccccc21)NCCc1ccc(Cl)cc1`, the z-score falls from 0.00884 to -0.0052.

Going from `Cc1ccc(NC(=O)COC(=O)C2CC2)c(Br)c1` to `Cc1cc(NC(=S)NC(=O)CC(C)C)ccc1Br`, the z-score rises from -0.43 to 0.227.

First: COC(=O)c1ccc(CSc2nc3ccccc3o2)cc1
Second: CCc1ccc(N=c2c([N+](=O)[O-])nn(-c3ccccc3)n2O)cc1
The z-score of the first is higher: 1.01 for the first, -0.133 for the second.

First: COc1ccccc1NS(=O)(=O)c1cc(N/C(=N\S(=O)(=O)c2ccccc2)c2ccc(F)cc2)ccc1Cl
Second: O=C(N/N=C/c1ccccc1OC(=O)c1ccc2c(c1)OCO2)c1ccccc1
The z-score of the first is lower: -0.834 for the first, -0.24 for the second.

Compared with `CCN(CC(=O)Nc1cccc(OC)c1)c1ncnc2sc(C)c(C)c12`, `Cc1cccc(NC(=O)CSc2nc(C)nc3c2c(=O)n(C)c(=O)n3C)c1` is higher in z-score: -0.125 for the first, 0.113 for the second.

Going from `CC(=O)N1c2c(ccc3ccccc23)C(C)CC12CCCCC2` (centres undefined) to `O=C(NC1CCCCC1)c1ccccc1NC(=O)C1CC(=O)N(c2ccc(Cl)cc2)C1` (centres undefined), the z-score rises from -0.635 to -0.252.

First: CC1CCCN(S(=O)(=O)c2ccc(S(=O)(=O)NC(C)c3cccs3)cc2)C1 (centres undefined)
Second: COc1cc(CC(=O)OCC(=O)Nc2ccc(S(=O)(=O)N3CCCC3)cc2)cc(OC)c1OC
The z-score of the first is higher: -0.136 for the first, -0.47 for the second.

Going from `COc1cccc(CNCCOCCO)c1OC` to `COc1cccc(CN(C)C(=O)Nc2cccc(C(F)(F)F)c2)c1OC`, the z-score rises from -0.424 to -0.116.

Going from `O=C(NCCSCc1ccco1)Nc1cccc(Cl)c1` to `O=C(COc1ccccc1Cl)NCCC1=CCCCC1`, the z-score falls from 1.01 to -0.184.

First: Cc1cc(-n2c(C)cc(C(=O)CSc3ccc4c(c3)OCCO4)c2C)no1
Second: Cc1cc(NS(=O)(=O)c2ccc(NC(=O)c3oc4ccccc4c3C)cc2)no1
The z-score of the first is lower: -0.827 for the first, 0.155 for the second.

First: Cc1oc2cc(OCC(=O)O)ccc2c(=O)c1Oc1ccccc1
Second: Cc1ccc(Oc2cnc3ccccc3n2)cc1
The z-score of the first is lower: -0.155 for the first, -0.0185 for the second.

Compared with `COc1ccc(N=CC2=C(Nc3ccc(OC)cc3)c3c(C)nn(-c4ccccn4)c3CC2)cc1`, `COc1ccc(C2NCCc3c2[nH]c2ccccc32)cc1COc1ccc(F)cc1` (centres undefined) is higher in z-score: -0.399 for the first, 0.732 for the second.

First: COc1ccc(CCN2C(=O)CC(NCCc3ccc(S(N)(=O)=O)cc3)C2=O)cc1OC (centres undefined)
Second: CN(C)CCNC(=O)c1ccc(CS(=O)(=O)c2ccc(Br)cc2)o1
The z-score of the first is lower: -0.0698 for the first, 0.348 for the second.

Compared with `O=c1[nH]c2c(s1)C(c1ccccc1)C1C3CCC(C3)C1S2` (centres undefined), `CCN1C(c2ccccc2)C(C)C(=O)C(C)C1c1ccccc1` (centres undefined) is lower in z-score: -0.0102 for the first, -0.186 for the second.

First: Cn1cccc1/C=C1\SC(=S)N(NC(=O)c2ccccc2Cl)C1=O
Second: Cc1c(N=C/C=C/c2ccccc2)c(=O)n(-c2ccccc2)n1C
The z-score of the first is lower: -0.429 for the first, -0.166 for the second.

First: Cc1cc(C)c(S(=O)(=O)NCc2ccc3c(c2)cc(C)n3C)c(C)c1
Second: Cc1ccc(O)c(-c2cc(C(=O)Nc3ccc(S(=O)(=O)N4CC(C)OC(C)C4)cc3)[nH]n2)c1 (centres undefined)
The z-score of the first is higher: 0.371 for the first, -0.527 for the second.

Compared with `CC1CCC(NC(=O)c2cnccn2)CC1` (centres undefined), `COC(=O)c1sc(NC(=O)c2cnccn2)c(C(=O)OC)c1C` is lower in z-score: 0.438 for the first, 0.358 for the second.

Going from `CCCCN(C)CCNC(=O)Cn1ncc2c(=O)oc3ccc(C)cc3c21` to `Cc1ccc2occ(-c3nn[nH]n3)c(=O)c2c1`, the z-score rises from -0.464 to 0.366.

First: Nn1c(SCC(=O)N2CCOCC2)nnc1-c1ccccc1Cl
Second: O=C(Nc1ccc(Cl)cc1C(=O)N1CCOCC1)c1cccc([N+](=O)[O-])c1
The z-score of the first is lower: 0.0431 for the first, 0.0715 for the second.

First: CCC1S/C(=N/N=C/c2cccs2)NC1=O (centres undefined)
Second: Cc1cc(C(=O)NCCCN2CCCC2=O)cs1
The z-score of the first is lower: -0.998 for the first, 0.26 for the second.

Going from `COc1ccc2nc(N=Nc3ccc(N(C)C)cc3)sc2c1` to `COc1ccc(-c2noc(-c3ccccc3C(=O)NCc3ccco3)n2)cc1OC`, the z-score falls from 0.141 to -0.78.

Going from `CCOC(=O)N1CCN(C(=O)c2ccccc2NC(=O)c2ccc(Br)cc2)CC1` to `COc1ccccc1NC(=O)CN1CCN(C(=O)c2ccco2)CC1`, the z-score rises from -0.377 to -0.0879.

First: N#C/C(=C\c1ccc(O)c(O)c1)S(=O)(=O)c1ccccc1
Second: O=C(NCC(O)CO)c1ccc2[nH]c3ccccc3c2c1 (centres undefined)
The z-score of the first is higher: -0.0806 for the first, -0.419 for the second.

Going from `CCOC(=O)C1CCCCN1Cc1cccc(C(F)(F)F)c1` (centres undefined) to `CCN1CCN(CC(=O)c2c[nH]c3ccc(C)cc23)CC1`, the z-score rises from -0.379 to -0.0926.

Compared with `Cc1ccc(CSc2nnc3c(n2)OC2(Nc4ccccc4-3)C(=O)Nc3ccc(F)cc32)cc1` (centres undefined), `O=C(c1ccc(CN2CCc3ccccc3C2)cc1)N1CCN(c2ccc(F)cc2)CC1` is lower in z-score: 0.032 for the first, -0.314 for the second.

Compared with `C=CCC1(O)CC(c2ccco2)NC(c2ccco2)C1CCC` (centres undefined), `COCCn1c(SCC(=O)Nc2cc(C(C)(C)C)nn2-c2ccccc2)nnc1-c1ccncc1` is lower in z-score: 1.08 for the first, -0.545 for the second.

With `COc1ccc(C(C(=O)NC2CCCCC2)N(C(=O)Cc2c[nH]c3ccccc23)c2ccccc2C)cc1OC` (centres undefined) the z-score was -0.337.

For `Cc1oc(-c2cccc(Cl)c2)nc1CN1CCC(C(=O)NCc2ccco2)CC1`, the z-score was active: -4.86.
For `CCOC(=O)C(CC)Sc1nnc(COc2ccc(C)cc2)n1-c1ccccc1` (centres undefined), the z-score was active: -3.38.
